Laboratory results taken from paper PMC4336329 (PLoS ONE, 2015).
The whole screen tested about 310,000 compounds, of which about 2,200 (0.71%) showed an effect of 50% or more. Effects have a minus sign here. This is one part of the list.

Biological target: human ether-à-go-go-related gene (hERG) potassium channel (human, UniProt Q12809)
Test: primary screen, population patch clamp on CHO cells stably expressing hERG

Chain of human ether-à-go-go-related gene (hERG) potassium channel (Q12809 whole entry, looked up): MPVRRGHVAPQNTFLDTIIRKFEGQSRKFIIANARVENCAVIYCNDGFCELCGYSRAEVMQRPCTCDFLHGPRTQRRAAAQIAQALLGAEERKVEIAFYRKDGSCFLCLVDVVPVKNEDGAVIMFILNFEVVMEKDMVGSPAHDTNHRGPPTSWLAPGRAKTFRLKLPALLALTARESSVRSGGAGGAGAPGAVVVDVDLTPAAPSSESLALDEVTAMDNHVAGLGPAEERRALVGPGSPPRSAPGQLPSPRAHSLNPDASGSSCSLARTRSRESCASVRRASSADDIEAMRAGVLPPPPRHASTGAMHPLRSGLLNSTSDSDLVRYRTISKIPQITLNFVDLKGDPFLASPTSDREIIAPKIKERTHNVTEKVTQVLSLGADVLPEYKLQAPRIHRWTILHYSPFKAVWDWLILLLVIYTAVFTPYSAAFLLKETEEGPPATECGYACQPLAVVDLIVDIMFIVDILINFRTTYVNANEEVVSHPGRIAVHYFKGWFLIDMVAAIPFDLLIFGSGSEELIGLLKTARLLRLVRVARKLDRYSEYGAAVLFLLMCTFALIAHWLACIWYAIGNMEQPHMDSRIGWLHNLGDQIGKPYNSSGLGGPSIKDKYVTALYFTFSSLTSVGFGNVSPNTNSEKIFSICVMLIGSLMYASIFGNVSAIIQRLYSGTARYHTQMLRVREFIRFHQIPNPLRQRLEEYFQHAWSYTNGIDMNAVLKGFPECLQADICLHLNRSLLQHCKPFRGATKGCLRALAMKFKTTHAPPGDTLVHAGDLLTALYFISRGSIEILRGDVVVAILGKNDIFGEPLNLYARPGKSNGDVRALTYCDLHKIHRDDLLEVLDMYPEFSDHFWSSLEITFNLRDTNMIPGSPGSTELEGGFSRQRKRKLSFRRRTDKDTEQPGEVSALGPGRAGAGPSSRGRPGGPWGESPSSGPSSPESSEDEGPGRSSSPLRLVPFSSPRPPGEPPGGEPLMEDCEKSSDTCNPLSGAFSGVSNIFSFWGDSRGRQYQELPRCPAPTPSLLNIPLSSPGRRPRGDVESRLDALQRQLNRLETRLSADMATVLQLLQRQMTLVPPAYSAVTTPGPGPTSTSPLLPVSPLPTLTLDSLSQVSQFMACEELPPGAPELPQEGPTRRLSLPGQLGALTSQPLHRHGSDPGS

Row | Compound | hERG current change (%, negative = inhibition) at 1uM [%]
1 | Cc1cc(N2CCOCC2)nc2ccc(NC(=S)NCc3ccc4c(c3)OCO4)cc12 | -4.82
2 | O=C(O)c1ccccc1OCCN1CCCC1=O | 15.3
3 | CCC(C)(C)C1CCc2[nH]nc(C(=O)NCCNC(=O)OC(C)(C)C)c2C1 (stereo not drawn) | 17.2
4 | COc1ccc(OC)c2nc(-c3cccnc3)ccc12 | 14.2
5 | O=C(NC1CC1)C1=COCCO1 | 8.61
6 | N#Cc1ccccc1OCC(=O)NCC(c1cccs1)N1CCOCC1 (stereo not drawn) | 1.97
7 | Cc1ccccc1NC1=NCCCS1 | 10.7
8 | CNC(=S)N(Cc1ccc(OC)cc1)C1CC(=O)N(c2ccc(C(=O)OC)cc2)C1=O (stereo not drawn) | 3.68
9 | CC[C@H](C)[C@H](NC(=O)c1ccc(Cl)cc1)C(=O)OCC(=O)c1ccc2c(c1)NC(=O)CO2 | -7.29
10 | O=C(COc1ccccc1)N1CCN(S(=O)(=O)Cc2ccccc2)CC1 | -4.11
11 | COc1ccc(CC(=O)NNC(=O)CSc2ccc(C)cc2)cc1 | 4.73
12 | CCC(=O)N=c1ccn(C2=Nc3ccccc3NC2=C(C#N)C#N)cc1 | 1.24
13 | CCC1CCCCN1CCCNC(=O)c1ccc(CS(=O)(=O)c2ccc(Br)cc2)o1 (stereo not drawn) | 0.453
14 | CCOC(=O)Cc1nnc(Nc2ccc(C)cc2)c2ccccc12 | 5.16
15 | Cn1c(/C(C#N)=C(\O)c2ccc(Br)s2)nc2ccccc21 | 7.96
16 | NC(=O)C1CCN(CC(=O)Nc2ccccn2)CC1 | 8.36
17 | O=C(Nc1cnn(Cc2ccc(Cl)cc2)c1)C1CCCC1 | -7.77
18 | Cc1cccc(C)c1NC(=O)C(=O)NCC1CCCN1S(=O)(=O)c1cccs1 (stereo not drawn) | 12
19 | COc1ccc(Oc2ccc(C(F)(F)F)cc2NC(=O)c2ccc(F)cc2)cc1 | 9
20 | CCOC(=O)C1(C)C=C(Nc2ccc(O)cc2)C(=O)N1c1ccc(O)cc1 (stereo not drawn) | 6.39
21 | COC(=O)C1=C(C)N(c2ccc(C)c(C)c2)/C(=C/c2ccco2)C1=O | 6.25
22 | COc1ccccc1C1CN(c2ccccc2)N=C1c1cccs1 (stereo not drawn) | 10.5
23 | C/C(=N\NC(=O)c1ccc(CN2CCOCC2)cc1)c1ccc([N+](=O)[O-])cc1 | 10

Row | Compound | hERG current change (%, negative = inhibition) at 1uM [%]
24 | CCOC(=O)C1(CCc2ccccc2)CCN(C(=O)C2=C(C)OCCO2)CC1 | 1.82
25 | COc1ccc(-c2cn[nH]c2N)c(OC)c1 | -4.39
26 | O=C(NCCc1cccs1)C1CC(c2ccccc2F)=NO1 (stereo not drawn) | 11.3
27 | CCc1cc2c(=O)[nH]c(Cc3ccccc3)nc2s1 | 4.42
28 | O=C(N/N=C/c1ccncc1)c1cnccn1 | 6.26
29 | CN(C(=O)COC(=O)c1ccccc1OCc1ccc(Cl)cc1)c1c(N)n(Cc2ccccc2)c(=O)[nH]c1=O | 19.8
30 | CCN(CC)S(=O)(=O)c1ccc(N2CCCCC2)c(NC(=O)C2CCN(C(=O)c3ccc(F)cc3)CC2)c1 | 17.4
31 | Cc1cccc(OP(=O)(Oc2cccc(C)c2)OC(c2ccccc2)C(F)(F)F)c1 (stereo not drawn) | 12.1
32 | CCOc1ccc(C(=O)CN2CCN(S(=O)(=O)c3ccc(OC)cc3)CC2)cc1 | -33.4
33 | Cc1ccc2nc(N3CCN(C)CC3)c(C#N)cc2c1 | -10
34 | Cn1c(=O)cc(SCC(=O)N2CCCC2)c2ccccc21 | 9.79
35 | COc1ccccc1/C=C1\SC(=S)N(CCC(=O)Nc2cccc(O)c2)C1=O | 13.1
36 | CC1=NN(C(=O)Cc2ccc([N+](=O)[O-])cc2)C(O)(c2cccnc2)C1 (stereo not drawn) | -11
37 | CCOc1ccc(OCCCC(=O)N2CCN(S(=O)(=O)c3ccc(Cl)cc3)CC2)cc1 | 12.5
38 | COc1cc(CN2CCNC(=O)C2CC(=O)NC2CCC2)cc(OC)c1 (stereo not drawn) | 15.7
39 | Cc1ccc(CSCCNC(=O)c2cccc([N+](=O)[O-])c2)cc1 | -13.8
40 | Cc1ccc(-c2nc(CNC(=O)c3ccco3)cs2)cc1 | 4.02
41 | Cc1cccc(C(=O)NCCc2csc(C)n2)c1 | 11.8
42 | CC1Oc2ccccc2OC1(O)c1ccccn1 (stereo not drawn) | 7.58
43 | Cc1ccc(Cl)cc1OCC(=O)NCCOC(=O)Nc1sc(=S)n(C)c1C | 2.06
44 | CCOc1ccc(NC(=O)C2CCCN2S(=O)(=O)c2ccc3c(c2)C(C)(C)C(=O)N3C)cc1 (stereo not drawn) | 2.55
45 | COc1cccc(-n2c(=O)c3ccccc3n3c(=S)[nH]nc23)c1 | 18
46 | CC(=O)c1cccc(NC(=O)N2CCCC2C(=O)Nc2c(C)cccc2C)c1 (stereo not drawn) | 10.1

Row | Compound | hERG current change (%, negative = inhibition) at 1uM [%]
47 | CC(C)C(=O)N1CCN(c2ccccc2NC(=O)COc2ccccc2)CC1 | -6.76
48 | c1ccc2c(c1)[nH]c1ccncc12 | 3.65
49 | Cc1ccc(NC(=O)c2ccc(OC(=O)c3ccco3)cc2)cc1 | 14.1
50 | Cc1nc(SCC(=O)NCCc2ccccc2)nc(C)c1C | 16.6
51 | O=[N+]([O-])c1ccccc1CN1CCN(S(=O)(=O)c2ccccc2)CC1 | 7.59
52 | O=C(Cc1cccs1)NCCc1csc(-c2ccccc2)n1 | -3.13
53 | CCOC(=O)c1c(O)c(Cl)c(C)[nH]c1=O | 16.3
54 | COc1ccc(-c2nc(CN3CCCCC3c3cccnc3)c(C)o2)c(F)c1 (stereo not drawn) | -12.2
55 | CCC(=O)Nc1ccc(N2CCN(Cc3ccccc3)CC2)cc1 | -0.42
56 | CCC(=O)c1ccc(OCC(O)CN2CCc3ccccc3C2)cc1.Cl (stereo not drawn) | -40.6
57 | COc1ccc(N2CCN(C(=O)COc3ncnc4ccccc34)CC2)cc1 | 3.13
58 | O=C(CN1C(=O)NC2(CCCC2)C1=O)Nc1ccccc1F | -6.53
59 | CC1SC(=NC(=O)C(C)N2C(=O)c3ccccc3C2=O)NC1=O (stereo not drawn) | 13.4
60 | O=C(c1ccc(CS(=O)Cc2ccc(Cl)cc2)o1)N1CCN(c2ccccn2)CC1 (stereo not drawn) | -6.98
61 | Cc1nn(Cc2ccc(Cl)cc2)c(C)c1NC(=O)CCCn1nc(C)c([N+](=O)[O-])c1C | -27.5
62 | COC(=O)c1ccc([C@H](NC(=O)c2ccco2)[C@]2(C)C[C@H]2C2CCCCC2)cc1 | 11.6
63 | O=C(O)Cc1ccc(OCc2ccc(Cl)nc2)cc1 | 17.6
64 | CCC/C(=N/NC(=O)c1cccc(Cl)c1)c1ccccc1 | 9.19
65 | Cc1ccc2cc(C3CC(c4ccco4)=NN3C(=O)CCC(=O)O)c(Cl)nc2c1 (stereo not drawn) | -0.0403
66 | O=C(Nc1cccc(-c2csc(Nc3ccc(Cl)cc3)n2)c1)c1cc([N+](=O)[O-])cc(C(F)(F)F)c1 | 12.6
67 | COc1ccc(C2=NOC(C(=O)NCc3ccccn3)C2)cc1 (stereo not drawn) | 15.2
68 | Cn1c(=O)c(N=O)c(N)n(Cc2ccccc2)c1=S | 6.13
69 | CC(=O)c1ccc(C(C)(C)c2ccc(C(C)=O)s2)s1 | 7.15

Row | Compound | hERG current change (%, negative = inhibition) at 1uM [%]
70 | CCOc1ccc(CN2C(=O)c3ccccc3C2C(=O)NCc2cccnc2)cc1 (stereo not drawn) | -3.35
71 | COc1ccc(C(=O)Nc2ccc(C3=NNC(=O)CC3C)cc2NC(=O)c2ccc(OC)cc2)cc1 (stereo not drawn) | 8
72 | CCCc1nc(-c2cc3ccccc3[nH]c2=O)no1 | 15.6
73 | Nc1ccc(N2CCCCC2)cc1N1CCCCC1 | 8.38
74 | Cc1cc([N+](=O)[O-])cc2c1NCC1CC=CC21 (stereo not drawn) | -3.07
75 | O=C(Nc1ccccc1F)N1CCc2ccccc2C1 | 18
76 | Cc1cc(C)cc(-n2ncc3c2CCCC3NC(=O)CN2CCCC2=O)c1 (stereo not drawn) | 17.3
77 | CC(=O)N1c2ccc(S(=O)(=O)N(C)CC(=O)NC(C)c3ccccc3)cc2CC1C (stereo not drawn) | 7.71
78 | COc1cccc(OCCNc2cc(Cl)ccc2[N+](=O)[O-])c1 | 18.1
79 | CCOC(=O)Cc1csc(SCC(=O)N(CC(C)C)c2c(N)n(Cc3ccccc3)c(=O)[nH]c2=O)n1 | 7.33
80 | N#CC1(NC(=O)COC(=O)c2ccc(Cl)nc2)CCCCC1 | 17.7
81 | CC(=O)c1cc2c(cc1N)OCO2 | 5.27
82 | COc1ccc(N2CC(C)(C)C2=O)cc1 | 19.4
83 | CCO[C@@H]1OC(C(=O)N2CCN(Cc3ccccc3)CC2)=C[C@H](c2ccc(C(F)(F)F)cc2)[C@H]1CCCO | 12.7
84 | O=C(CSc1nnc(CNC(=O)c2cccs2)o1)NC1CCCCC1 | -12.7
85 | CN(C)S(=O)(=O)Nc1ccc(C(=O)O)cc1 | -8.27
86 | CCOCCN(C(=O)c1ccccc1Cl)c1ccccc1 | 13.5
87 | CCOC(=O)CCNC(=O)N1CCCC(CNS(=O)(=O)c2cccs2)C1 (stereo not drawn) | 12.8
88 | O=C(c1cccc(C(F)(F)F)c1)C1CCCN(C(=O)CCCn2cncn2)C1 (stereo not drawn) | -18.7
89 | CC1CCN(S(=O)(=O)c2ccc(C(=O)N3CCCC(C(F)(F)F)C3)cc2)CC1 (stereo not drawn) | 5.83
90 | CC(C)(C)c1ccc(C(=O)NNc2cc(Cl)cc(Cl)c2)cc1 | 12.9
